Each structure is given as a SMILES string.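 Protocol summary: plate cells (96-well), add compound at 5 concentrations, incubate 48 h, interpolate endpoints linearly. GI50 = concentration required for 50% inhibition of growth. Definition used: TGI = concentration required for complete inhibition of growth.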

This assay relates to NCI-H322M lung. Nature of the assay: NCI-60 cell line screen, 48 h.

`CN(C)c1nc(NCCNS(=O)(=O)c2ccc(C3=Nc4c(N)nc(N)nc4NC(c4ccc(F)cc4)C3)cc2)nc(Nc2ccc(F)cc2)n1` (configuration not stated): the GI50 is over 100 µM and the TGI was over 100 µM.

(Values after PubChem BioAssay (NCI).)
